# According to PubChem BioAssay AID2546 (National Center for Advancing Translational Sciences (NCATS), 2010):
# Out of some 310,000 compounds screened, about 11,000 (3.5%) were called active. The shares of active, inactive and inconclusive entries below differ from those in the screen. The call rests on the fitted dose curve; in most records, active means well fitted inhibition curve with a large enough effect; inconclusive means small, poorly fitted or top-dose-only effect, or effect the other way; inactive means flat fitted curve, though single readings scatter. Potencies of inconclusive entries are left out as doubtful fits.
# Assay: VP16 counterscreen qHTS for inhibitors of ROR gamma transcriptional activity;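 further: Gal4-VP16 expression switched on by copper sulfate through the metallothionein promoter; nearly all actives have a fitted effect of over 50% in size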
# Details: Drosophila S2 Gal4-VP16 UAS-luciferase, luminescence, 20 h; activity, negative = inhibition: at 53.6 µM (top of the series)
# On the % scale 0 is the no-effect control and ±100 the full control effect; potency means the concentration at half of the fitted maximal effect; tags describe the fitted curve by direction and shape.
Structure (SMILES),Potency,"activity, negative = inhibition"
Cc1cc(C)cc(OCC(=O)Nc2nc(-c3cccnc3)cs2)c1,"inconclusive [inhibitor, partial curve]",–
Cc1ccc2nc(SC(C(=O)Nc3ccc(F)cc3)c3ccccc3)[nH]c2c1 (stereo not drawn),"inconclusive [inhibitor, single point]",–
NCCC[C@@H](CC(=O)N[C@@H]1CCNC[C@H]1C(=O)N[C@H](CC(=O)N[C@@H](CCC(=O)O)CC(=O)O)Cc1ccccc1)NC(=O)C[C@H](CO)NC(=O)[C@@H]1CCCC[C@H]1N,–,inactive: -0.287%
COc1ccc(NC(=O)CN(C)S(=O)(=O)c2ccccc2)cc1,"inconclusive [inhibitor, single point]",–
O=C(Nc1nnc(-c2ccc(F)cc2)o1)c1cccc([N+](=O)[O-])c1,active: 0.794 µM,–
COc1cccc(/C=N/n2c(COc3ccccc3)n[nH]c2=S)c1OC,"inconclusive [inhibitor, single point]",–
NC(=O)CNc1n[nH]c(=S)[nH]c1=O,–,inactive: -4.21%
COCCCNC(=O)CN(c1ccc(F)cc1)S(=O)(=O)c1ccc2c(c1)OCCO2,–,inactive: 0.173%
CC[C@H](C)[C@H](NC(=O)[C@H](CC(C)C)NC(=O)[C@H](CC(N)=O)NC(=O)[C@@H](NC(=O)[C@@H](N)Cc1ccc(O)cc1)[C@@H](C)CC)C(=O)N[C@@H](Cc1ccc(O)cc1)C(=O)N[C@@H](CCCN=C(N)N)C(=O)N[C@@H](CC(C)C)C(=O)N[C@@H](CCCN=C(N)N)C(=O)N[C@@H](Cc1ccc(O)cc1)C(N)=O,–,inactive: 1.33%
CC/C(=N\n1nnnc1Nc1ccccc1)c1ccccc1,"inconclusive [inhibitor, single point]",–
CCOC(=O)N1CCC2(CC1)C(C#N)=C(N)Oc1c2sc2nc(C)cc(C)c12,"inconclusive [inhibitor, single point]",–
Cc1c(C=O)c2ccccc2n1CCOc1ccccc1,"inconclusive [inhibitor, full curve, poor fit]",–
C/C(=N/NC(=O)CN(c1ccccc1)S(=O)(=O)c1ccccc1)c1ccccc1O,active: 0.794 µM,–
Cc1cc(NC(=O)c2ccc(-c3ccccc3F)o2)no1,"inconclusive [activator, full curve, poor fit]",–
CCOc1cc(O)c(-c2[nH]ncc2-c2nc(C)cs2)cc1CC,"inconclusive [inhibitor, single point]",–
Cc1cccc(N/C=C/C(=O)c2ccc(Cl)cc2)c1,"inconclusive [inhibitor, partial curve]",–
COc1ccc(C(=O)NC(=S)Nc2ccc3oc(=O)ccc3c2)cc1[N+](=O)[O-],"inconclusive [inhibitor, single point]",–
CC(C)(C)n1ncc(Oc2ccccc2[N+](=O)[O-])c(Cl)c1=O,"inconclusive [inhibitor, single point]",–
Cc1nn2c(C(F)(F)F)c3c(nc2c1-c1ccccc1)CCC3,–,inactive: -5.15%
O=C1C(Cl)=C(N2CCOCC2)C(=O)N1c1ccc(Br)cc1,"inconclusive [inhibitor, single point]",–
Cn1c(=O)c(-c2ccccc2)nc2ccccc21,"inconclusive [activator, partial curve]",–
O=C(CN1CCOCC1)N/N=C/C(Br)=C\c1ccccc1,"inconclusive [activator, single point]",–
S=c1nc(Cc2ccc(Cl)cc2)[nH]c2ccccc12,active: 11.2 µM,–
CC(=O)OC1CC(C)(C)N(OC(=O)c2ccccc2)C(C)(C)C1,–,inactive: 16.6%
COc1ccc(S(=O)(=O)n2cnc3ccccc32)cc1OC,–,inactive: -5.02%

Structure (SMILES),Potency,"activity, negative = inhibition"
CCC(COC)NC(=O)c1ccc(OC)c(OC2CCN(C(C)=O)CC2)c1 (stereo not drawn),–,inactive: -0.493%
COCCCNC(=O)CCn1c(=O)c2ccccc2n(CC(=O)Nc2cc(Cl)ccc2C)c1=O,–,inactive: 1.02%
CC1CCCC(C)N1C(=O)Cc1ccccc1 (stereo not drawn),–,inactive: 4.63%
CN(C)C(=O)OCC1COc2ccccc2O1 (stereo not drawn),–,inactive: 15.9%
O=C(c1ccccc1)N1N=C(C(F)(F)F)CC1(O)c1ccc(F)cc1 (stereo not drawn),"inconclusive [inhibitor, single point]",–
O=S(=O)(CCc1nc2ccccc2o1)c1ccc2ccccc2c1,"inconclusive [inhibitor, single point]",–
COc1ccc(/C=C/C(=O)c2ccc(NC3=NCCCS3)cc2)cc1OC,–,inactive: -7.22%
CCOc1ccc(-c2cc(CCCC(=O)NCc3ccc(C)cc3)no2)cc1,"inconclusive [inhibitor, partial curve]",–
CC(C)c1ccc(N2CCN(C(=O)c3ccccc3NC(=O)/C=C\C(=O)O)CC2)cc1,"inconclusive [inhibitor, single point]",–
O=C(Oc1ccccc1-c1nnco1)c1ccccc1,"inconclusive [activator, single point]",–
C/C(=N/NS(=O)(=O)c1ccc(C)cc1C)c1c[nH]c2ccccc12,"inconclusive [inhibitor, single point]",–
CCOC(=O)c1c(-c2ccc(OC)cc2)csc1NC(=O)CNCc1ccco1,active: 5.62 µM,–
S=C(NCc1ccco1)Nc1cc(-c2ccccc2)[nH]n1,"inconclusive [inhibitor, single point]",–
O=C(NNC(=S)NC(=O)c1cccnc1)c1ccccc1,"inconclusive [inhibitor, single point]",–
COc1ccc(N/C=C/C(=O)c2sc(-c3ccccc3)nc2C)cc1,–,inactive: -3.1%
CCC(C)Nc1nc(SC(C(C)=O)C(C)=O)nc(N(C)C)n1 (stereo not drawn),"inconclusive [inhibitor, single point]",–
CCn1cc(C(=O)N[C@H](C)c2ccccc2)c(=O)c2cc(F)c(N3CCN(C)CC3)cc21,–,inactive: 4.36%
Cc1ccc(-c2nc(CN(C)Cc3cccc4cnccc34)c(C)o2)s1,"inconclusive [inhibitor, single point]",–
S=C(NCc1ccco1)Nc1ccc(Cl)cc1Cl,"inconclusive [inhibitor, single point]",–
N#C/C(=N\Nc1ccc(Cl)cc1)C(=O)c1ccsc1,"inconclusive [inhibitor, single point]",–
CCCCSc1nc2c(c(=O)[nH]c(=O)n2C)n1CCc1ccccc1,"inconclusive [inhibitor, single point]",–
CCOc1ccccc1-c1nnc2n1N=C(c1cccc(OC)c1)CS2,"inconclusive [inhibitor, single point]",–
OC[C@H]1NC[C@H](O)[C@@H](O)[C@H]1O,–,inactive: -9.94%
Cc1ccnc2nc(C(=O)Nc3nnc(-c4ccc(Cl)cc4)o3)nn12,–,inactive: -2.71%
COc1ccc(NC(=O)c2cc(F)cc(F)c2)cc1Cl,"inconclusive [inhibitor, full curve]",–

Structure (SMILES),Potency,"activity, negative = inhibition"
Cc1c(C(=O)N2CCCCC2)c(S(=O)(=O)N2CCc3ccccc32)c(C)n1C,–,inactive: -0.908%
Cc1cc(C(=O)Cn2nnc(-c3ccc(Cl)cc3)n2)c(C)n1CC1CCCO1 (stereo not drawn),active: 31.6 µM,–
CC/C(=N\Nc1ccnc2cc(Cl)ccc12)c1ccc(O)cc1,–,inactive: -2.8%
Cc1ccc(OCCNS(=O)(=O)c2ccc(N3CCCC3=O)cc2)cc1C,active: 12.6 µM,–
CCOC(=O)C1=C(C)OC(N)=C(C#N)C1c1ccc(C)o1 (stereo not drawn),"inconclusive [inhibitor, single point]",–
O=C(NC(=S)NCc1ccccc1)c1ccc(Br)o1,active: 12.6 µM,–
COc1ccc(/C=C/c2cc(C(=O)O)c3ccccc3n2)cc1,active: 1.41 µM,–
Cc1c(Cl)cccc1NC(=S)NNc1ncc(C(F)(F)F)cc1Cl,"inconclusive [inhibitor, partial curve]",–
S=c1[nH]nc(-c2ccc3ccccc3n2)n1Cc1ccccc1,active: 5.62 µM,–
Cc1cccc2c1[nH]c1nc(N/N=C\c3ccco3)nnc12,–,inactive: -16.6%
Cc1ccc(-n2cc3ccc([N+](=O)[O-])cc3n2)cc1,"inconclusive [inhibitor, single point]",–
O=c1cc(C(F)(F)F)[nH]c2c(C(F)(F)F)cccc12,"inconclusive [inhibitor, single point]",–
COc1cc2ncnc(Nc3ccc(F)c(Cl)c3)c2cc1OCCCN1CCOCC1,–,inactive: 5.79%
CCOC(=O)c1ccc(N2C(=O)CC(N3CCC(C(N)=O)(N4CCCCC4)CC3)C2=O)cc1 (stereo not drawn),"inconclusive [inhibitor, single point]",–
Cc1ccc(OCC(=O)N2CCN(C(=O)c3ccc([N+](=O)[O-])cc3)CC2)cc1,"inconclusive [inhibitor, single point]",–
Cc1ccc2oc(C(=O)N(C)Cc3ccon3)c(C)c2c1,–,inactive: -13.4%
Cc1nc(C(F)(F)F)c(C(=O)O)cc1-c1nc(-c2ccccc2)cs1,–,inactive: -0.391%
c1ccc(CCn2nnc3ccccc32)cc1,–,inactive: -5.56%
CC(=O)Nc1ccc2nc(NC(=O)c3ccc([N+](=O)[O-])s3)sc2c1,"inconclusive [activator, single point]",–
CC(C)(C)C(=O)N(Cc1ccc(Cl)cc1)c1cnccn1,"inconclusive [inhibitor, single point]",–
COc1cccc(CNc2ccc(N3CCCCC3)cc2)c1OC,"inconclusive [inhibitor, single point]",–
CCC(C)C(=O)OCC1(c2ccc(C)cc2OC(=O)C(C)C)CO1 (stereo not drawn),"inconclusive [inhibitor, single point]",–
O=c1c2cc(Br)ccc2nc(-c2cccc(C(F)(F)F)c2)n1O,active: 20 µM,–
